The text below walks through data of the supplement of paper PMC4967469.

Broadly, the IC50 is the midpoint of a concentration-inhibition curve.

What all share (test): Viability of human cancer cell lines after 72 h of drug (GDSC screen)
Compound in assay [1]: Fc1cc(-c2ccnc(Nc3ccc(-n4cnc(N5CCOCC5)n4)cc3)n2)cc(N2CCOCC2)c1 [JNK-9L]
The following applies: top dose 5.12 µM; top dose inferred. As to the method: (§1)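 Human cancer cell lines in 384-well plates, medium with 10% serum, drug for 72 h over a 256-fold dose range (nine 2-fold or five 4-fold steps up to the top dose). Adherent lines were fixed and stained with the nucleic acid dye Syto60, suspension lines read with resazurin; signal relative to control wells, capped at 0 and 100%. One two-parameter sigmoid per drug and line, fitted in a mixed model over all curves with the slope shared within a line.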

Compound in assay [2]: OC[C@H](Cc1ccccc1)Nc1nc(Oc2ccc3c(c2)CCC3)nc2c1ncn2Cc1ccc(-c2ccccc2)cc1 [QS11]
Particulars: top dose 10.24 µM. As to the method: as §1

Compound in assay [3]: NCC(=O)Nc1ccc(-n2nc(C(F)(F)F)cc2-c2ccc3c(ccc4ccccc43)c2)cc1 [OSU-03012]
Particulars: top dose 16 µM; top dose inferred. As to the method: as §1

Compound in assay [4]: COc1cc(F)c(F)c(Nc2ccc(I)cc2F)c1NS(=O)(=O)C1(C[C@H](O)CO)CC1 [RDEA119]
The following applies: top dose 5 µM, top dose inferred. As to the method:
as §1

Compound in assay [5]: C#Cc1cccc(Nc2ncnc3cc(OC)c(OCCCCCCC(=O)NO)cc23)c1 [CUDC-101]
The following applies: top dose 5.12 µM; top dose inferred. The method, then: as §1

Compound in assay [6]: CC(C)(C)c1cc(NC(=O)Nc2ccc(-c3cn4c(n3)sc3cc(OCCN5CCOCC5)ccc34)cc2)no1 [AC220]
The following applies: top dose 1.024 µM; top dose inferred. As to the method: as §1

Lines with a small IC50 respond at low doses; a limit (>, <) means that the fit lies beyond the doses tested. AUC is the area under the same curve over the 256-fold range up to the top dose, as a fraction; the more sensitive the line, the further below 1. For some assays here: The top dose, if marked as inferred, was calculated from the reported fits. For some assays here: Drugs with an entry number were screened twice under separate entries, and the two screens often disagree. Bounds are passed on as bounds.

With NK-92MI (lymphoid neoplasm, suspension), the AUC amounted to 0.528 in assay [1], 0.766 in assay [2] and 0.734 in assay [3]. The figures for the IC50 in assay [1], in assay [2] and in assay [3] were 0.379 µM, 3.53 µM and 4.38 µM, respectively.
Consider OCI-LY7 (B-cell lymphoma, suspension), for which, in assay [4] (screen: GDSC drug entry 1014), the AUC is 0.969 and the IC50 is greater than 5 µM.
In the case of PWR-1E (prostate, adherent), the AUC in assay [4] (screen: GDSC drug entry 1014) came out at 0.904; in assay [4] (screen: GDSC drug entry 1526), 0.974. Besides, the IC50 in assay [4] (screen: GDSC drug entry 1014) and in assay [4] (screen: GDSC drug entry 1526) was greater than 5 µM throughout.
For RCH-ACV (B-cell leukaemia, suspension), in assay [4] (screen: GDSC drug entry 1014), the AUC turned out to be 0.983 and the IC50 was greater than 5 µM. Moreover, in assay [4] (screen: GDSC drug entry 1526), the AUC was determined as 0.975 and the IC50 was greater than 5 µM.
For RH-18 (rhabdomyosarcoma, adherent), in assay [4] (screen: GDSC drug entry 1014), the AUC was 0.862 and the 50% inhibitory concentration (IC50) is greater than 5 µM. For the same cell line, in assay [4] (screen: GDSC drug entry 1526), the AUC was determined as 0.869 and the IC50 is greater than 5 µM.
In the case of SCC90 (head and neck, adherent), the AUC turned out to be 0.61 in assay [1]; 0.98 in assay [2]; 0.588 in assay [4] (screen: GDSC drug entry 1014); 0.7 in assay [4] (screen: GDSC drug entry 1526); 0.866 in assay [3]. Besides, the IC50 in assay [1] is 0.731 µM; in assay [2] it was greater than 10.2 µM; in assay [4] (screen: GDSC drug entry 1014) it was 0.603 µM; in assay [4] (screen: GDSC drug entry 1526) it was 1.46 µM; in assay [3], greater than 16 µM.
SK-GT-2 (stomach, adherent): in assay [4] (screen: GDSC drug entry 1014), the AUC was 0.882 and the concentration for half-maximal inhibition (IC50) was greater than 5 µM. Also, in assay [4] (screen: GDSC drug entry 1526), the AUC was 0.867 and the IC50 amounted to 4.92 µM.
As for SK-MEL-5 (melanoma, adherent), the AUC in assay [5] came out at 0.959; in assay [6], 0.983; in assay [4] (screen: GDSC drug entry 1014) it was 0.498; in assay [4] (screen: GDSC drug entry 1526) it was 0.619. Besides, the IC50 in assay [5] was greater than 5.12 µM; in assay [6], greater than 1.02 µM; in assay [4] (screen: GDSC drug entry 1014) it was 0.308 µM; in assay [4] (screen: GDSC drug entry 1526), 0.716 µM.
In the case of SK-MEL-31 (melanoma, adherent), in assay [4] (screen: GDSC drug entry 1014), the AUC came out at 0.867 and the half-inhibitory concentration (IC50) was greater than 5 µM. Moreover, in assay [4] (screen: GDSC drug entry 1526), the AUC was found to be 0.95 and the IC50 is greater than 5 µM.
Regarding “SKM-1 (haematopoietic neoplasm, suspension)”, in assay [4] (screen: GDSC drug entry 1014), the AUC was 0.199 and the IC50 stood at 0.0358 µM. In assay [4] (screen: GDSC drug entry 1526), the AUC worked out at 0.24 and the IC50 was 0.0507 µM.
Turning to STS-0421 (soft tissue, adherent), the AUC in assay [1] came to 0.569; in assay [2], 0.888; in assay [4] (screen: GDSC drug entry 1014), 0.781; in assay [4] (screen: GDSC drug entry 1526), 0.821; in assay [3], 0.938. Besides, the IC50 was 0.512 µM in assay [1]; greater than 10.2 µM in assay [2]; 2.44 µM in assay [4] (screen: GDSC drug entry 1014); 3.53 µM in assay [4] (screen: GDSC drug entry 1526); greater than 16 µM in assay [3].
On to SUP-B8 (B-cell leukaemia, suspension), for which the AUC in assay [4] (screen: GDSC drug entry 1014) came out at 0.988; in assay [4] (screen: GDSC drug entry 1526) it was 0.985. Also, the IC50 in assay [4] (screen: GDSC drug entry 1014) and in assay [4] (screen: GDSC drug entry 1526) was greater than 5 µM throughout.
Turning to TC-YIK (cervix, suspension), in assay [4] (screen: GDSC drug entry 1014), the AUC amounted to 0.844 and the IC50 was determined as 2.9 µM. In assay [4] (screen: GDSC drug entry 1526), the AUC came to 0.837 and the IC50 was 2.73 µM.
Turning to “THP-1 (acute myeloid leukaemia, suspension)”, the AUC in assay [5] was determined as 0.309; in assay [1], 0.715; in assay [2], 0.971. The IC50 was 0.0994 µM in assay [5], 1.21 µM in assay [1] and greater than 10.2 µM in assay [2].
Turning to U-266 (myeloma, semi-adherent), the AUC in assay [4] (screen: GDSC drug entry 1014) worked out at 0.821; in assay [4] (screen: GDSC drug entry 1526), 0.902. In addition, the IC50 in assay [4] (screen: GDSC drug entry 1014) was 4.36 µM; in assay [4] (screen: GDSC drug entry 1526), greater than 5 µM.
Regarding UACC-62 (melanoma, adherent), the AUC came to 0.714 in assay [5]; 0.524 in assay [1]; 0.985 in assay [6]; 0.987 in assay [2]; 0.987 in assay [4] (screen: GDSC drug entry 1014); 0.364 in assay [4] (screen: GDSC drug entry 1526). Besides, the IC50 was 1.28 µM in assay [5]; greater than 1.02 µM in assay [6]; greater than 10.2 µM in assay [2]; greater than 5 µM in assay [4] (screen: GDSC drug entry 1014); 0.132 µM in assay [4] (screen: GDSC drug entry 1526).
For the cell line “VMRC-LCD (lung adenocarcinoma, adherent)”, in assay [4] (screen: GDSC drug entry 1014), the AUC was 0.984 and the IC50 is greater than 5 µM. Further, in assay [4] (screen: GDSC drug entry 1526), the AUC stood at 0.992 and the IC50 was greater than 5 µM.
With ZR-75-30 (breast, adherent), in assay [4] (screen: GDSC drug entry 1014), the AUC was 0.976 and the IC50 was greater than 5 µM.
